Patent US20230149508A1, “COMPOSITIONS AND METHODS FOR TREATING COMPLICATIONS OF VIRAL INFECTIONS AND OTHER RESPIRATORY DISORDERS” (priority 2020, published 2023)
Peptide text beside a SMILES is read from it. * marks the point of attachment. Biotin = O=C1N[C@H]2[C@H](CS[C@H]2CCCCC(=O)*)N1; Ahx = NCCCCCC(=O)O

System: cecal-ligation and puncture (CLP) mouse model of sepsis
Test: Cecal-ligation and puncture (CLP) mouse model of sepsis
Conditions: 1000 uM aCT1 at 6 hrs post-CLP; lungs at 12 hrs post CLP injury

CC[C@H](C)[C@H](NC(=O)[C@H](CCC(=O)O)NC(=O)[C@H](CC(C)C)NC(=O)[C@H](CC(=O)O)NC(=O)[C@H](CC(=O)O)NC(=O)[C@@H]1CCCN1C(=O)[C@H](CCCNC(=N)N)NC(=O)[C@@H]1CCCN1C(=O)[C@H](CCCNC(=N)N)NC(=O)[C@H](CCCCN)NC(=O)[C@H](CCCCN)NC(=O)[C@H](Cc1c[nH]c2ccccc12)NC(=O)[C@@H]1CCCN1C(=O)[C@H](CCCCN)NC(=O)[C@H](CCCNC(=N)N)NC(=O)[C@H](CCCNC(=N)N)NC(=O)[C@H](CC(N)=O)NC(=O)[C@@H]1CCCN1C(=O)[C@H](Cc1ccccc1)NC(=O)[C@H](Cc1c[nH]c2ccccc12)NC(=O)[C@@H](NC(=O)[C@H](CCCCN)NC(=O)[C@@H]1CCCN1C(=O)[C@H](CCC(N)=O)NC(=O)[C@H](CCCNC(=N)N)NC(=O)CCCCCNC(=O)CCCC[C@@H]1SC[C@@H]2NC(=O)N[C@@H]21)[C@@H](C)CC)C(=O)O [aCT1] ({Biotin-Ahx}-RQPKIWFPNRRKPWKKRPRPDDLEI-OH; N-terminus and C-terminus assumed)
Alveolar edema, lung H&E histopathology: significantly decreased
Immune cell infiltration (intra-alveolar neutrophil accumulation), lung H&E histopathology: significantly decreased
